# Results from the supplement of paper PMC8728848.
# This is one part of the list.
# B1: Fm1D (Escherichia coli) (protein)
# chain: FSCNVDGGSSIGAGTTSVYVNLDPVIQPGQNLVVDLSQHISCWNDYGGWYDTDHINLVQGSAFAGSLQSYKGSLYWNNVTYPFPLTTNTNVLDIGDKTPMPLPLKLYITPVGAAGGVVIKAGEVIARIHMYKIATLGSGNPRNFTWNIISNNSVVMPTHHHHHH
# What was measured:
# Experiment in all cases: glycan array binding signal (z-score within array); higher = stronger binding
# Conditions in all cases: glycan notation: IUPAC condensed, linker removed
# [1] = molecular target: Gal(b1-3)GalNAc(b1-4)Gal(b1-4)Glc
# Procedure, shortened: (§1)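 Glycan array binding is given as a within-array Z-score, which can be read as non-binding when negative. The arrays, 3228 of them, came from the Consortium for Functional Glycomics database and were retained only where the protein sequence was available. Z-scores were averaged across arrays of the same protein sequence at different concentrations or buffers and across linkers.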
# [2] = molecular target: Gal(b1-3)GalNAc(b1-4)[Neu5Ac(a2-3)]Gal(b1-4)Glc
# Procedure, shortened: as §1
# [3] = molecular target: Gal(b1-3)GlcNAc
# Procedure, shortened: as §1
# [4] = molecular target: Gal(b1-3)GlcNAc(a1-3)Gal(b1-4)GlcNAc
# Procedure, shortened: as §1
# [5] = molecular target: Gal(b1-3)GlcNAc(a1-6)Gal(b1-4)GlcNAc
# Procedure, shortened: as §1
# [6] = molecular target: Gal(b1-3)GlcNAc(b1-2)Man
# Procedure, shortened: as §1
# [7] = molecular target: Gal(b1-3)GlcNAc(b1-2)Man(a1-3)[Gal(b1-3)GlcNAc(b1-2)Man(a1-6)]Man(b1-4)GlcNAc(b1-4)GlcNAc
# Procedure, shortened: as §1
# [8] = molecular target: Gal(b1-3)GlcNAc(b1-2)Man(a1-3)[Gal(b1-3)GlcNAc(b1-2)Man(a1-6)]Man(b1-4)GlcNAc(b1-4)[Fuc(a1-6)]GlcNAc
# Procedure, shortened: as §1
# [9] = molecular target: Gal(b1-3)GlcNAc(b1-2)Man(a1-3)[GlcNAc(b1-4)][Gal(b1-3)GlcNAc(b1-2)Man(a1-6)]Man(b1-4)GlcNAc(b1-4)GlcNAc
# Procedure, shortened: as §1
# [10] = molecular target: Gal(b1-3)GlcNAc(b1-2)[Gal(b1-3)GlcNAc(b1-6)]Man(a1-6)[Gal(b1-3)GlcNAc(b1-2)Man(a1-3)]Man(b1-4)GlcNAc(b1-4)GlcNAc
# Procedure, shortened: as §1
# [11] = molecular target: Gal(b1-3)GlcNAc(b1-3)Gal(b1-3)GlcNAc
# Procedure, shortened: as §1
# [12] = molecular target: Gal(b1-3)GlcNAc(b1-3)Gal(b1-4)Glc
# Procedure, shortened: as §1
# [13] = molecular target: Gal(b1-3)GlcNAc(b1-3)Gal(b1-4)GlcNAc
# Procedure, shortened: as §1
# [14] = molecular target: Gal(b1-3)GlcNAc(b1-3)Gal(b1-4)GlcNAc(b1-2)Man(a1-3)[Gal(b1-3)GlcNAc(b1-3)Gal(b1-4)GlcNAc(b1-2)Man(a1-6)]Man(b1-4)GlcNAc(b1-4)GlcNAc
# Procedure, shortened: as §1
# [15] = molecular target: Gal(b1-3)GlcNAc(b1-3)Gal(b1-4)GlcNAc(b1-2)[Gal(b1-3)GlcNAc(b1-3)Gal(b1-4)GlcNAc(b1-6)]Man(a1-6)[Gal(b1-3)GlcNAc(b1-3)Gal(b1-4)GlcNAc(b1-2)Man(a1-3)]Man(b1-4)GlcNAc(b1-4)[Fuc(a1-6)]GlcNAc
# Procedure, shortened: as §1
# [16] = molecular target: Gal(b1-3)GlcNAc(b1-3)Gal(b1-4)GlcNAc(b1-3)Gal(b1-4)GlcNAc(b1-2)[Gal(b1-3)GlcNAc(b1-3)Gal(b1-4)GlcNAc(b1-3)Gal(b1-4)GlcNAc(b1-6)]Man(a1-6)[Gal(b1-3)GlcNAc(b1-3)Gal(b1-4)GlcNAc(b1-3)Gal(b1-4)GlcNAc(b1-2)Man(a1-3)]Man(b1-4)GlcNAc(b1-4)[Fuc(a1-6)]GlcNAc
# Procedure, shortened: as §1
# [17] = molecular target: Gal(b1-3)GlcNAc(b1-3)Gal(b1-4)GlcNAc(b1-6)[Gal(b1-3)GlcNAc(b1-3)]Gal(b1-4)Glc
# Procedure, shortened: as §1
# [18] = molecular target: Gal(b1-3)GlcNAc(b1-3)Gal(b1-4)[Fuc(a1-3)]GlcNAc
# Procedure, shortened: as §1
# [19] = molecular target: Gal(b1-3)GlcNAc(b1-3)Gal(b1-4)[Fuc(a1-3)]GlcNAc(b1-6)[Gal(b1-3)GlcNAc(b1-3)]Gal(b1-4)Glc
# Procedure, shortened: as §1
# [20] = molecular target: Gal(b1-3)GlcNAc(b1-3)GalNAc
# Procedure, shortened: as §1
# [21] = molecular target: Gal(b1-3)GlcNAc(b1-6)Gal(b1-4)GlcNAc
# Procedure, shortened: as §1
# [22] = molecular target: Gal(b1-3)GlcNAc(b1-6)GalNAc
# Procedure, shortened: as §1
# [23] = molecular target: Gal(b1-3)GlcNAc(b1-6)[Gal(b1-3)]GalNAc
# Procedure, shortened: as §1
binder,measurement,setting,value
B1,glycan array binding signal (z-score),[1],-0.125
same,glycan array binding signal (z-score),[2],-0.132
same,glycan array binding signal (z-score),[3],-0.137
same,glycan array binding signal (z-score),[4],-0.147
same,glycan array binding signal (z-score),[5],-0.147
same,glycan array binding signal (z-score),[6],-0.141
same,glycan array binding signal (z-score),[7],-0.141
same,glycan array binding signal (z-score),[8],-0.142
same,glycan array binding signal (z-score),[9],-0.145
same,glycan array binding signal (z-score),[10],-0.141
same,glycan array binding signal (z-score),[11],-0.146
same,glycan array binding signal (z-score),[12],-0.141
same,glycan array binding signal (z-score),[13],-0.142
same,glycan array binding signal (z-score),[14],-0.144
same,glycan array binding signal (z-score),[15],-0.123
same,glycan array binding signal (z-score),[16],-0.112
same,glycan array binding signal (z-score),[17],-0.143
same,glycan array binding signal (z-score),[18],-0.144
same,glycan array binding signal (z-score),[19],-0.14
same,glycan array binding signal (z-score),[20],-0.143
same,glycan array binding signal (z-score),[21],-0.146
same,glycan array binding signal (z-score),[22],-0.12
same,glycan array binding signal (z-score),[23],3.7
